The structures appear in SMILES notation. Hit rate of the full screen: of about 340,000 compounds, about 6,900 (2%) were called active. Cut-off read from the data, not from the text of the source: active = inhibition above about 30%; inactive = below that, where a call was filed. The entries are a selection whose mix differs from that of the whole data set. Entries without a call were filed so in the source. Some structures have more than one record in an assay (separate samples or runs), and their calls can disagree.

Broadly, the inhibition is the drop in the measured response relative to a control, in per cent.

The target of this experiment is D(2) dopamine receptor (Homo sapiens) (UniProt P14416). Nature of the experiment: HTS Assay for Allosteric Antagonists of the Human D2 Dopamine Receptor: Primary Screen for Antagonists. Note: 0% is about no effect. Particulars: HEK293 TREx D2 cells, calcium flux, dopamine EC80; at 10 µM; stronger effect = higher value. Put shortly: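 Calcium flux kinetic readout in an inducible HEK293 TREx D2 line plated overnight at 30 C. After 180 s compound exposure, an EC80 dopamine challenge follows with another 180 s kinetic read to detect antagonism.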
UniProt P14416, sequence (P14416 whole entry, looked up): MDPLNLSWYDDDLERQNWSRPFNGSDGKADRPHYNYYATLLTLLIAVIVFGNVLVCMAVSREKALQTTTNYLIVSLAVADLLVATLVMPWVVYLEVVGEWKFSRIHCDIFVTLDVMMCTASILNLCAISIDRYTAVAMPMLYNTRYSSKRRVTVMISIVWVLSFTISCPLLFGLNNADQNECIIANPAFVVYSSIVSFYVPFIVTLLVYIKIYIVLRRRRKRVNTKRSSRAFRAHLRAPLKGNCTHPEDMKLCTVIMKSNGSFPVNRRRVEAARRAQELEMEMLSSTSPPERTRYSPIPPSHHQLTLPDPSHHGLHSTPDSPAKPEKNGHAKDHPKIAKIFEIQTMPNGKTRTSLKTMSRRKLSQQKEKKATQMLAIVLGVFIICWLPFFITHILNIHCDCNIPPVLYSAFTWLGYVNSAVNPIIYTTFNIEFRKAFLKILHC
Background: Calcium assays in cells follow changes in intracellular calcium, usually with a dye or a luminescent sensor.
As to `Oc1ccc(-c2nc(-c3ccccc3)c(-c3ccc(Br)cc3)[nH]2)cc1`, the inhibition amounted to 7.37%.

With `O=C(COC(=O)C(Cc1c[nH]c2ccccc12)NC(=O)c1ccc(Cl)cc1)c1ccc(Cl)cc1` (stereo unspecified), the inhibition was found to be 1.09%.

In the case of `Cc1nn(-c2ccccc2)c2c1cc1c(=O)n(C)c(=O)nc-1n2-c1cccc(Cl)c1`, the inhibition is 24.2%.

For the molecule `CCOc1ccc(CCn2c(-c3ccco3)nc3ccccc3c2=O)cc1OCC`, the inhibition is active: 35.8%.

Consider `COc1ccc(-c2cc(=O)c3cc(OCC(=O)OC(C)C)ccc3o2)cc1`, for which the inhibition was -9.91%.

Regarding `COc1cc(CCNC(=O)c2ccc3c(c2)c(C)c(C)n3Cc2cccc(C)c2)cc(OC)c1OC`, the inhibition was found to be 2.19%.

In the case of `COCCCn1c(=N)c(C(=O)NCc2cccnc2)cc2c(=O)n3cc(C)ccc3nc21`, the inhibition was -15.1%.

Consider `CN(C)S(=O)(=O)c1cccc(C(=O)Nc2ccc(Cl)cn2)c1`, for which the inhibition is active: 36.9%.

On to `Cc1cc(C)c2c(-n3cccc3)c(C(=O)NCc3cccc(F)c3)sc2n1`, for which the inhibition was 5.49%.

For `CCOc1ccc(NC(=O)c2nc3nc(C)cc(C(F)F)n3n2)cc1`, the inhibition is -7.72%.

Take `CN1C(=O)/C(=C\c2ccc(N(C)C)cc2)OC1=S`: the inhibition was active: 47.5%.

Regarding `CCc1nnc(SCc2ccc(OC)cc2)c2cc3sc(C)cc3n12`, the inhibition was found to be 6.68%.

For the molecule `O=C(CCn1ccc2cc(S(=O)(=O)N3CCCC3)ccc21)NCc1cccc(Cl)c1`, the inhibition worked out at 5.26%.

For `CCOC(=O)C1CCN(S(=O)(=O)c2cnc[nH]2)CC1`, the inhibition is active: 34.9%.

As to `Cc1cc(C(=O)NCc2cccc(Br)c2)c2c(C)nn(-c3ccccc3)c2n1`, the inhibition came out at 16.8%.

For `Cc1ccc(NC(=O)c2ccc(CNS(=O)(=O)c3ccc4c(c3)C(C)(C)C(=O)N4C)cc2)cc1C`, the inhibition is -8.08%.

As to `CC(=O)N1c2ccc(S(=O)(=O)NCC3CCC(C(=O)Nc4ccc(C)c(C)c4)CC3)cc2CC1C` (stereo unspecified), the inhibition is -5.76%.

Consider `O=C(NCc1ccccc1Cl)c1ccc(Cn2c(SCc3ccccc3)nc3cccnc32)cc1`, for which the inhibition was -0.401%.

For `CCc1ccccc1NC(=O)c1ccc2c(SCC(=O)O)c3c(nc2c1)CCC3`, the inhibition amounted to 3.72%.

In the case of `Cc1ccccc1Cn1c2ccccc2c2cnn(CC(=O)NCC(C)c3ccccc3)c(=O)c21` (stereo unspecified), the inhibition was -1.7%.

Consider `CCOc1ccc(C2c3c(oc4ccc(C)cc4c3=O)C(=O)N2CCCN(C)C)cc1` (stereo unspecified), for which the inhibition worked out at 14.9%.

On to `CSc1ccc(CCNC(=O)C(C)n2nc(C)c3sc4ccccc4c3c2=O)cc1` (stereo unspecified), for which the inhibition is 7.52%.

`CCOC(=O)C1CCN(C(=O)c2ccc(NC(=O)c3nsc4ccccc34)cc2)CC1`: the inhibition is -14.6%.

`COc1cc(OC)c(NC(=O)c2nn(-c3ccc(C)cc3)c(=O)c3c2c2ccccc2n3C)cc1Cl`: the inhibition is -4.57%.

Turning to `O=C(Nc1cccc(C(=O)N2CCN(c3cccc(Cl)c3)CC2)c1)c1nsc2ccccc12`, the inhibition was -13.8%.

For `CC(=O)c1nnn(-c2ccc(C)cc2Cl)c1C`, the inhibition was -1.49%.

Turning to `CC(C)Oc1cccc(C2CC(=O)Nc3cc4c(cc32)OCO4)c1` (stereo unspecified), the inhibition was -4.93%.

Take `O=C(CCn1cnnn1)Nc1cc(C(F)(F)F)cc(C(F)(F)F)c1`: the inhibition was -0.895%.

As for `CC(=O)c1ccc(Nc2ccc3cc(S(=O)(=O)N4CCCC4)ccc3n2)cc1`, the inhibition was -7.16%.

Take `COc1cc(NC(=O)CSc2nccn2C)cc(OC)c1OC`: the inhibition is -9.89%.

`COc1ccc2c(c1)c1c(c(=O)n(-c3ccc(OC)c(OC)c3)c(=O)n1Cc1ccccc1F)n2C`: the inhibition was -8.99%.

In the case of `CC(C)CCn1nnc2sc(-c3ccccc3)cc2c1=O`, the inhibition came out at 4.73%.

For the molecule `CCCCSCCCNC(=O)c1cn(C)c2ccc(S(=O)(=O)N3CCCCCC3)cc2c1=O`, the inhibition is -16.7%.

On to `O=C(NCCS(=O)(=O)N1CCN(c2ccc(F)cc2)CC1)c1cccc(C(F)(F)F)c1`, for which the inhibition is -7.87%.

Turning to `Cc1ccc(Cl)cc1N1CCN(C(=O)CCCn2c(=O)[nH]c3ccc(Br)cc3c2=O)CC1`, the inhibition is -6.46%.

Regarding `CN(C)c1ccc(CNC(=O)c2ccc(NC(=O)N3CCCCc4ccccc43)cc2)cc1`, the inhibition was determined as 1.79%.

As for `N#CC1(c2ccccc2)CCC(NCCc2ccccc2)CC1` (stereo unspecified), the inhibition is active: 45.6%.

`COc1ccc(-n2c(SCC(=O)Nc3cccc(C)c3C)nc3c([nH]c4ccccc43)c2=O)cc1`: the inhibition is 11%.

As to `N#Cc1c(-n2ncnc2-c2cccc(Br)c2)sc2c1CCCCC2`, the inhibition worked out at 8.52%.

On to `O=S(=O)(Nc1cc(F)ccc1F)c1ccc2[nH]c3c(c2c1)CCCCC3`, for which the inhibition is -9.62%.

`Cc1ccc2oc(=O)c3cc(C(=O)N4CCN(c5ccccc5F)CC4)sc3c2c1`: the inhibition amounted to 0.133%.

Consider `CC(C)(C)c1ccc(Oc2ccc(NC(=O)CCC(=O)OCC(=O)c3ccccc3)cc2)cc1`, for which the inhibition came out at 6.48%.

As for `Cc1ccc(NC(=O)c2c(NC(=O)Cc3ccccc3)sc3c2CCCC3)cc1`, the inhibition is -9.17%.

For the molecule `CC(=O)c1cccc(NC(=O)Cn2c(=O)oc3cc(S(=O)(=O)N4CCCC4)ccc32)c1`, the inhibition came out at 7%.

Consider `CCOc1ccc(CCNC(=O)CN2C(=O)COc3ccc(S(=O)(=O)N4CCCCCC4)cc32)cc1`, for which the inhibition is -10.7%.

On to `CC(=O)Nc1ccc(NC(=O)CCSCCc2ccccn2)cc1`, for which the inhibition stood at 4.57%.

As to `CN(C)c1ccc(-c2nnc3n(Cc4ccccc4)c(=O)c4ccccc4n23)cc1`, the inhibition was -3.42%.

For `CCC1(C)Cc2nc3sc(C(=O)O)c(N)c3cc2CO1` (stereo unspecified), the inhibition was active: 36.7%.

Regarding `c1ccc(CN(CC2=NCCN2)c2ccccc2)cc1`, the inhibition was active: 40.8%.

Take `COc1cccc(C(=O)N(Cc2ccco2)c2ccccn2)c1`: the inhibition was 0.173%.

For the molecule `CCCN(CC1CC1)C(=O)COC(=O)c1oc2c(F)cccc2c1C`, the inhibition is active: 40.6%.

Turning to `CC(=O)Nc1ccc(/C=N/N2C(=O)NC(C)(c3ccc(OC(F)F)cc3)C2=O)cc1` (stereo unspecified), the inhibition was active: 46.7%.

Regarding `O=C(CNC(=O)c1ccccc1F)OCc1cc(=O)n2nc(C3CCCCC3)sc2n1`, the inhibition was 6.84%.

As to `O=C(Nc1cc2ccc(O)cc2oc1=O)c1ccccc1`, the inhibition came out at 2.4%.

Regarding `O=S(=O)(c1ccc(-c2csc(=Nc3ccc(OC(F)(F)Cl)cc3)n2CCCO)cc1)N1CCCC1`, the inhibition is -17.7%.

With `CC(C)CCNC(=O)c1ccc2c(c1)N(Cc1ccccc1F)C(=O)c1ccccc1S2(=O)=O`, the inhibition was -2.82%.

Regarding `Fc1cccc(Cl)c1CNCCSc1nnnn1-c1ccccc1`, the inhibition was 3.15%.

For `Cc1cccc(C)c1NC(=O)Cn1c(SCC(=O)NCc2ccccc2)nc2ccccc21`, the inhibition was -14.4%.

For the molecule `Cc1ccc(NC(=O)c2ncoc2-c2ccco2)cc1Cl`, the inhibition is -3.1%.

On to `Cc1ccc(-c2nn(-c3ccccc3)cc2CNCc2ccccc2)cc1`, for which the inhibition was active: 51%.

`CCOC(=O)N1CCN(c2c(NCCc3ccc(OC)c(OC)c3)c(=O)c2=O)CC1`: the inhibition is active: 36.2%.

As for `COc1ccc2cc(CNc3ccc(OC)c(OC)c3)c(=O)n(CC(=O)Nc3ccccc3F)c2c1`, the inhibition amounted to 0.428%.

As for `CCOC(=O)N1CCN(C(=O)CN2C(=O)COc3ccc(C)cc32)CC1`, the inhibition was active: 37.5%.

`CCOC(=O)c1[nH]c(C)c(CCC(=O)Nc2cccc(SC)c2)c1C`: the inhibition is -10.9%.

In the case of `CCOC(=O)CNC(=O)c1cc(OC)cc(OC)c1`, the inhibition is active: 38.6%.

As to `CCOc1ccc(NC(=O)C2CCN(S(=O)(=O)c3c(C)noc3/C=C/c3cccs3)CC2)cc1`, the inhibition amounted to 17.7%.

`CCOc1ccc(-c2nnc(SCC(=O)c3ccccc3)n2-c2ccccc2)cc1`: the inhibition was determined as 8.44%.

For `COC(=O)CNC(=O)N1CCN(S(=O)(=O)c2ccc3c(ccn3C)c2)CC1`, the inhibition was found to be 19%.

In the case of `COc1ccc(C(=O)Nc2ccc3oc(-c4ccc5ccccc5c4)nc3c2)cc1Br`, the inhibition was 5.8%.

For `Cn1cccc1-c1cc2n(n1)CCC(=O)N2CCCC(=O)NCc1ccc(F)cc1`, the inhibition is -1.93%.

Regarding `CCc1cc2c(cc3c(=O)n(CC(=O)NCc4cc(Br)ccc4OC)ncn32)s1`, the inhibition is 3.9%.

Regarding `CCN(CC)S(=O)(=O)c1ccc2oc(C(=O)Nc3cc(C)ccc3OC)c(C)c2c1`, the inhibition was 12.6%.

As to `COC(=O)CC1=NN(c2ccccc2)C(=O)/C1=C\c1ccc(OC)cc1`, the inhibition was active: 56%.

Take `CN1C(=O)Cc2cc(S(=O)(=O)CCC(=O)Nc3ccc(OC(F)(F)F)cc3)ccc21`: the inhibition was 9.76%.

Take `Oc1ccc(C(=S)N2CCCCCC2)cc1`: the inhibition is active: 37%.

As to `Cc1ccc(NC(=O)CN2C(=O)c3ccccc3Sc3ccc(C(=O)N4CCOCC4)cc32)c(Cl)c1`, the inhibition was found to be 17.7%.

Regarding `CCN(C(=O)C1CCCN(c2ncnc3c2nc2n3CCCCC2)C1)c1cccc(C)c1` (stereo unspecified), the inhibition was -6.79%.

On to `CCOc1ccc(OC(=O)c2c(-c3ccccc3Cl)noc2C)cc1`, for which the inhibition is 3.67%.

As to `CCn1cc(C(=O)NCCc2ccc(C)cc2)c(=O)c2cc(S(=O)(=O)N3CCc4ccccc4C3)ccc21`, the inhibition is -1.09%.

For the molecule `Cc1ccc(-c2noc(-c3cc(-c4ccc(F)cc4)n[nH]3)n2)cc1`, the inhibition stood at 4.46%.

Turning to `O=C(Nc1c(-c2ccccc2)nc2ccccn12)c1ccccc1F`, the inhibition amounted to 6.31%.

Regarding `Cc1cc(C)cc(NC(=O)CNS(=O)(=O)c2ccc3nc(C)sc3c2)c1`, the inhibition was -7.24%.

As for `COC(=O)c1ccc(NC(C)C(=O)OC)c([N+](=O)[O-])c1` (stereo unspecified), the inhibition was active: 42.8%.

Consider `CC(=O)c1ccc(N2CCN(C(=O)CCn3cnc4onc(-c5ccc(F)cc5)c4c3=O)CC2)cc1`, for which the inhibition is -9.5%.

Consider `O=C1CC(c2ccc(F)cc2)c2c(c3ccccc3[nH]c2=O)O1` (stereo unspecified), for which the inhibition is -26.2%.

Consider `CCOc1ccccc1NC(=O)Nc1cc2c(cc1N1CCCCC1)n(CC)c(=O)n2CC`, for which the inhibition turned out to be 3.24%.

On to `CCOC(=O)c1ccc(NC(=O)CSc2nccn2-c2cc(C)cc(C)c2)cc1`, for which the inhibition is -0.372%.

On to `CCOc1ccccc1CNCc1c(C(=O)O)n(Cc2ccc(F)cc2)c2cc(C)ccc12`, for which the inhibition is -11.3%.

Turning to `Cc1nc2nc(SCC(=O)NCCc3ccc(Cl)cc3)nn2c(C)c1Cc1ccccc1Cl`, the inhibition amounted to 4.42%.

With `Cc1ccccc1C1=CCN(c2ncc(NC(=O)c3ccc(Cl)cc3)cc2C(=O)O)CC1`, the inhibition is -5.49%.

Regarding `Cc1nc2c(-c3ccccc3)c(C)nn2c(C)c1CCC(=O)Nc1ccccc1F`, the inhibition is -17.7%.

As to `Cc1ccc(NC(=O)CSc2nc3ccc(NC(=O)COc4ccc(C)cc4)cc3s2)cc1`, the inhibition is -9.44%.

Consider `COc1ccccc1N1CCN(CCCC(=O)c2ccc(F)cc2)CC1`, for which the inhibition was active: 69.6%.

Take `COc1ccccc1N1CCN(C(=O)CCn2nc(C)c(S(=O)(=O)N3CCCC3)c2C)CC1`: the inhibition was -6.42%.

As to `Cc1ccc(SCc2nc(-c3ccc(C(=O)Nc4cc(C)ccc4C)cc3)oc2C)cc1`, the inhibition stood at 4.81%.

On to `O=C(Nc1nnc(C2CC(=O)N(c3ccc(Cl)cc3)C2)s1)c1ccco1` (stereo unspecified), for which the inhibition turned out to be 13.8%.

The values are drawn from PubChem BioAssay AID485344 (National Center for Advancing Translational Sciences (NCATS), 2010).
